This is one part of the list.
What was measured:
Test in all cases: glycan array binding signal (z-score within array); higher = stronger binding
Settings in all cases: glycan notation: IUPAC condensed, linker removed
[1] = molecular target: Fuc(a1-2)Gal(b1-4)GlcNAc(b1-3)Gal(b1-4)GlcNAc(b1-2)Man(a1-3)[Fuc(a1-2)Gal(b1-4)GlcNAc(b1-3)Gal(b1-4)GlcNAc(b1-2)Man(a1-6)]Man(b1-4)GlcNAc(b1-4)GlcNAc
Outline: (§1)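 Arrays were curated from the Consortium for Functional Glycomics database, 3228 in total, and kept only where the protein sequence was available. Binding is expressed as a within-array Z-score. This score was averaged across arrays of the same protein sequence at different concentrations or buffers and across linkers, and negative values can be read as non-binding.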

[2] = molecular target: Fuc(a1-2)Gal(b1-4)GlcNAc(b1-3)Gal(b1-4)GlcNAc(b1-3)Gal(b1-4)GlcNAc
Outline: as §1

[3] = molecular target: Fuc(a1-2)Gal(b1-4)GlcNAc(b1-3)GalNAc
Outline: as §1

[4] = molecular target: Fuc(a1-2)Gal(b1-4)GlcNAc(b1-3)[Fuc(a1-2)Gal(b1-4)GlcNAc(b1-6)]GalNAc
Outline: as §1

[5] = molecular target: Fuc(a1-2)Gal(b1-4)GlcNAc(b1-3)[Fuc(a1-3)[Gal(b1-4)]GlcNAc(b1-6)]Gal(b1-4)Glc
Outline: as §1

[6] = molecular target: Fuc(a1-2)Gal(b1-4)GlcNAc(b1-6)GalNAc
Outline: as §1

[7] = molecular target: Fuc(a1-2)Gal(b1-4)GlcNAc6S
Outline: as §1

[8] = molecular target: Fuc(a1-2)Gal(b1-4)[Fuc(a1-3)]GlcNAc
Outline: as §1

[9] = molecular target: Fuc(a1-2)Gal(b1-4)[Fuc(a1-3)]GlcNAc(b1-2)Man(a1-3)[Fuc(a1-2)Gal(b1-4)[Fuc(a1-3)]GlcNAc(b1-2)Man(a1-6)]Man(b1-4)GlcNAc(b1-4)[Fuc(a1-6)]GlcNAc
Outline: as §1

[10] = molecular target: Fuc(a1-2)Gal(b1-4)[Fuc(a1-3)]GlcNAc(b1-2)[Fuc(a1-2)Gal(b1-4)[Fuc(a1-3)]GlcNAc(b1-4)]Man(a1-3)[Fuc(a1-2)Gal(b1-4)[Fuc(a1-3)]GlcNAc(b1-2)Man(a1-6)]Man(b1-4)GlcNAc(b1-4)GlcNAc
Outline: as §1

[11] = molecular target: Fuc(a1-2)Gal(b1-4)[Fuc(a1-3)]GlcNAc(b1-3)Gal(b1-4)[Fuc(a1-3)]GlcNAc
Outline: as §1

[12] = molecular target: Fuc(a1-2)Gal(b1-4)[Fuc(a1-3)]GlcNAc(b1-3)Gal(b1-4)[Fuc(a1-3)]GlcNAc(b1-3)Gal(b1-4)[Fuc(a1-3)]GlcNAc
Outline: as §1

[13] = molecular target: Fuc(a1-2)Gal(b1-4)[Fuc(a1-3)]GlcNAc(b1-3)GalNAc
Outline: as §1

[14] = molecular target: Fuc(a1-2)Gal(b1-4)[Fuc(a1-3)]GlcNAc(b1-3)[Neu5Ac(a2-6)Gal(b1-4)GlcNAc(b1-6)]Gal(b1-4)Glc
Outline: as §1

[15] = molecular target: Fuc(a1-2)Gal3S(b1-4)GlcNAc
Outline: as §1

[16] = molecular target: Fuc(a1-2)Gal6S(b1-3)GlcNAc
Outline: as §1

[17] = molecular target: Fuc(a1-2)Gal6S(b1-3)GlcNAc6S
Outline: as §1

Fuc(a1-2)Gal6S(b1-4)Glc = molecular target: Fuc(a1-2)Gal6S(b1-4)Glc
Outline: as §1

[18] = molecular target: Fuc(a1-2)Gal6S(b1-4)Glc6S
Outline: as §1

Fuc(a1-2)[Gal(a1-3)]Gal = molecular target: Fuc(a1-2)[Gal(a1-3)]Gal
Outline: as §1

[19] = molecular target: Fuc(a1-2)[Gal(a1-3)]Gal(b1-3)GalNAc
Outline: as §1

[20] = molecular target: Fuc(a1-2)[Gal(a1-3)]Gal(b1-3)GalNAc(b1-3)Gal(a1-4)Gal(b1-4)Glc
Outline: as §1

[21] = molecular target: Fuc(a1-2)[Gal(a1-3)]Gal(b1-3)GlcNAc
Outline: as §1

[22] = molecular target: Fuc(a1-2)[Gal(a1-3)]Gal(b1-3)GlcNAc(b1-2)Man(a1-3)[Fuc(a1-2)[Gal(a1-3)]Gal(b1-3)GlcNAc(b1-2)Man(a1-6)]Man(b1-4)GlcNAc(b1-4)GlcNAc
Outline: as §1

[23] = molecular target: Fuc(a1-2)[Gal(a1-3)]Gal(b1-3)GlcNAc(b1-2)Man(a1-3)[Fuc(a1-2)[Gal(a1-3)]Gal(b1-3)GlcNAc(b1-2)Man(a1-6)]Man(b1-4)GlcNAc(b1-4)[Fuc(a1-6)]GlcNAc
Outline: as §1

[24] = molecular target: Fuc(a1-2)[Gal(a1-3)]Gal(b1-3)GlcNAc(b1-3)GalNAc
Outline: as §1

[25] = molecular target: Fuc(a1-2)[Gal(a1-3)]Gal(b1-3)GlcNAc(b1-6)GalNAc
Outline: as §1

[26] = molecular target: Fuc(a1-2)[Gal(a1-3)]Gal(b1-4)Glc
Outline: as §1

[27] = molecular target: Fuc(a1-2)[Gal(a1-3)]Gal(b1-4)GlcNAc
Outline: as §1

[28] = molecular target: Fuc(a1-2)[Gal(a1-3)]Gal(b1-4)GlcNAc(b1-2)Man
Outline: as §1

B1: FliC (Pseudomonas aeruginosa), P72151 (protein)
chain: MALTVNTNIASLNTQRNLNASSNDLNTSLQRLTTGYRINSAKDDAAGLQISNRLSNQISGLNVATRNANDGISLAQTAEGALQQSTNILQRIRDLALQSANGSNSDADRAALQKEVAAQQAELTRISDTTTFGGRKLLDGSFGTTSFQVGSNAYETIDISLQNASASAIGSYQVGSNGAGTVASVAGTATASGIASGTVNLVGGGQVKNIAIAAGDSAKAIAEKMDGAIPNLSARARTVFTADVSGVTGGSLNFDVTVGSNTVSLAGVTSTQDLADQLNSNSSKLGITASINDKGVLTITSATGENVKFGAQTGTATAGQVAVKVQGSDGKFEAAAKNVVAAGTAATTTIVTGYVQLNSPTAYSVSGTGTQASQVFGNASAAQKSSVASVDISTADGAQNAIAVVDNALAAIDAQRADLGAVQNRFKNTIDNLTNISENATNARSRIKDTDFAAETAALSKNQVLQQAGTAILAQANQLPQAVLSLLR
[1]
  glycan array binding signal (z-score): 0.028
[2]
  glycan array binding signal (z-score): -0.151
[3]
  glycan array binding signal (z-score): -0.16
[4]
  glycan array binding signal (z-score): -0.164
[5]
  glycan array binding signal (z-score): -0.132
[6]
  glycan array binding signal (z-score): -0.149
[7]
  glycan array binding signal (z-score): -0.022
[8]
  glycan array binding signal (z-score): -0.156
[9]
  glycan array binding signal (z-score): 0.108
[10]
  glycan array binding signal (z-score): -0.145
[11]
  glycan array binding signal (z-score): -0.194
[12]
  glycan array binding signal (z-score): -0.169
[13]
  glycan array binding signal (z-score): -0.154
[14]
  glycan array binding signal (z-score): -0.134
[15]
  glycan array binding signal (z-score): -0.169
[16]
  glycan array binding signal (z-score): -0.163
[17]
  glycan array binding signal (z-score): -0.159
Fuc(a1-2)Gal6S(b1-4)Glc
  glycan array binding signal (z-score): -0.178
[18]
  glycan array binding signal (z-score): -0.135
Fuc(a1-2)[Gal(a1-3)]Gal
  glycan array binding signal (z-score): -0.231
[19]
  glycan array binding signal (z-score): -0.178
[20]
  glycan array binding signal (z-score): -0.185
[21]
  glycan array binding signal (z-score): -0.118
[22]
  glycan array binding signal (z-score): -0.159
[23]
  glycan array binding signal (z-score): -0.129
[24]
  glycan array binding signal (z-score): -0.211
[25]
  glycan array binding signal (z-score): 0.094
[26]
  glycan array binding signal (z-score): -0.182
[27]
  glycan array binding signal (z-score): -0.168
[28]
  glycan array binding signal (z-score): -0.226

Source: the supplement of paper PMC8728848
